Results from article PMC7338617 (Redox Biology, 2020).

Experiments:
Assay in all cases: FRET or BRET
Rluc-tagged APJ-S345A = target: T1, Rluc-tagged APJ-S345A (UniProt P35414 1-380, S345A)
T1 sequence: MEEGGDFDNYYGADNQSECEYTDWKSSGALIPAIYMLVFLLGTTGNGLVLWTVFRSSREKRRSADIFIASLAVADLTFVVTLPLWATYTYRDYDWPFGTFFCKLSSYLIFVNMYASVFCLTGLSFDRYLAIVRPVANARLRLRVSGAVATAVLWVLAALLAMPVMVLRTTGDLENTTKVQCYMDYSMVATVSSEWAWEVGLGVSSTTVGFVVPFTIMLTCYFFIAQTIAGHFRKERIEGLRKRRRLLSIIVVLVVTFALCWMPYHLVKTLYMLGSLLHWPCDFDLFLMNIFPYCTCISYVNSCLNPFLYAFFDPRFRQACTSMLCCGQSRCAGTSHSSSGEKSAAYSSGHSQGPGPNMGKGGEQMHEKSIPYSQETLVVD

Rluc-tagged APJ-S348A = target: T2, Rluc-tagged APJ-S348A (UniProt P35414 1-380, S348A)
T2 sequence: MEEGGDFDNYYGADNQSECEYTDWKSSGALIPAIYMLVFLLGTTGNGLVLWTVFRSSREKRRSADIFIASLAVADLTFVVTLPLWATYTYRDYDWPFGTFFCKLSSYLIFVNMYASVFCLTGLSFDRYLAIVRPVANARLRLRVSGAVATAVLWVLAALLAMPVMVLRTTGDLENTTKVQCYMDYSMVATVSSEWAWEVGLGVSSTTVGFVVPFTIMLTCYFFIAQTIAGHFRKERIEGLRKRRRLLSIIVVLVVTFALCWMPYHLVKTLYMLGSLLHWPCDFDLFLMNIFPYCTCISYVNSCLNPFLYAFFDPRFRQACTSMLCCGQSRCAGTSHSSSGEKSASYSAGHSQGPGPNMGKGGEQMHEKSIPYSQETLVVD

Rluc-tagged APJ-S369A = target: T3, Rluc-tagged APJ-S369A (UniProt P35414 1-380, S369A)
T3 sequence: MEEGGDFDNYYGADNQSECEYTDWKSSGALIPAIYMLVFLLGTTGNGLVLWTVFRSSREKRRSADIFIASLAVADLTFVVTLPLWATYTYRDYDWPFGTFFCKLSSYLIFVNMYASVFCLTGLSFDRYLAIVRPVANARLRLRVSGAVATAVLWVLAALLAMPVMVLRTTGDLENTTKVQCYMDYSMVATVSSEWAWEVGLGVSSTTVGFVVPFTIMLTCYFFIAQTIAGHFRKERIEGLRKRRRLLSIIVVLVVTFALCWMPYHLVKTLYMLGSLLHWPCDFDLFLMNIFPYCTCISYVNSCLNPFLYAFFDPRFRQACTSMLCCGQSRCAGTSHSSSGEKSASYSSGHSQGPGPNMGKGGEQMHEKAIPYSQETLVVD

[1] = target: T4, Rluc-tagged WT APJ (apelin receptor) (UniProt P35414 1-380)
T4 sequence: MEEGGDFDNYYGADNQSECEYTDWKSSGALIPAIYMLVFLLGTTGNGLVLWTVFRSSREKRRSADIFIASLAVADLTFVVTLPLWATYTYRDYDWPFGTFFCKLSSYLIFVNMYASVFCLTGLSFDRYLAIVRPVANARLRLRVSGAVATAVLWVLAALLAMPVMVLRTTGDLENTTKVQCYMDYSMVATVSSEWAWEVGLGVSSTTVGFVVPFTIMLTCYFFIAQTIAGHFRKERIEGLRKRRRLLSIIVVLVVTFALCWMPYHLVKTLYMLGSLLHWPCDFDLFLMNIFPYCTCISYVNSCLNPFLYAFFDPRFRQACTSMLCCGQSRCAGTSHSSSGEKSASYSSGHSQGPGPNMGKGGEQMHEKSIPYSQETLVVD

Rluc-tagged APJ-S335A = target: T5, Rluc-tagged APJ-S335A (UniProt P35414 1-380, S335A)
T5 sequence: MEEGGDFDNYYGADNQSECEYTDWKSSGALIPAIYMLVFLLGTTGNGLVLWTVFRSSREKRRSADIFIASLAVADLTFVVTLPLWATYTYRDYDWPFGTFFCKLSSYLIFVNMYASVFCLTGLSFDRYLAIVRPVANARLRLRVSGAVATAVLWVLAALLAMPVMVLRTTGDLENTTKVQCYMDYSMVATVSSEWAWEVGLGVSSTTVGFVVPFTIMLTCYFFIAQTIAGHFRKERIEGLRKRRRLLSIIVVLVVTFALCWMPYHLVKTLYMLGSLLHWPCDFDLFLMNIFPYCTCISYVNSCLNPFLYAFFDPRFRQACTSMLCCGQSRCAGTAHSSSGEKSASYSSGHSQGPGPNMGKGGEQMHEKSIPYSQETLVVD

Rluc-tagged APJ-S339A = target: T6, Rluc-tagged APJ-S339A (UniProt P35414 1-380, S339A)
T6 sequence: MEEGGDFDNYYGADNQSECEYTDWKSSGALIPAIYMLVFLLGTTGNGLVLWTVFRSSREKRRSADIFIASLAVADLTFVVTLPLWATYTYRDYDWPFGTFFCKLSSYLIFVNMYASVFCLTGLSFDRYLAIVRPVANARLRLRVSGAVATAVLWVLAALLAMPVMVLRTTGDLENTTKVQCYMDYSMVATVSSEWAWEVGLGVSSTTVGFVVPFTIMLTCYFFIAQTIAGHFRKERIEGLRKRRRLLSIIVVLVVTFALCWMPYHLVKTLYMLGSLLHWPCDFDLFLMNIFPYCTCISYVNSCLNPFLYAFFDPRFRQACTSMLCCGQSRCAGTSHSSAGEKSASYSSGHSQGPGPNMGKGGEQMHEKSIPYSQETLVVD

B1: EGFP-tagged β-arrestin2 (natural protein)
chain: not shown
Rluc-tagged APJ-S345A
  EC50 of apelin-36 for the BRET between the pair: 5.24 nM
Rluc-tagged APJ-S348A
  EC50 of apelin-36 for the BRET between the pair: 4.98 nM
Rluc-tagged APJ-S369A
  EC50 of apelin-36 for the BRET between the pair: 4.89 nM
[1]
  EC50 of apelin-36 for the BRET between the pair: 5.18 nM
Rluc-tagged APJ-S335A
  EC50 of apelin-36 for the BRET between the pair: 5.01 nM
Rluc-tagged APJ-S339A
  EC50 of apelin-36 for the BRET between the pair: 8.74 nM
